Test system: Klebsiella pneumoniae (ATCC 700603, extended β-lactamase resistance)
Test: Antibacterial test, clinically relevant strains (Sahly et al. 2003)

mayamycin
IC50: 2500 nM

— US20130045931A1 (priority 2010, published 2013)
